Here are results for 23 compounds from the supplement of paper PMC4604168 (melanoma cell lines).

Molecules are shown by their SMILES. Some of the results follow. Single values are uncertain, as repeats are few or missing.

Assay in all cases: cell count relative to DMSO control; melanoma cells; higher = more viable cells
Conditions in all cases: library dose: low library concentration; 72 h

The test system of experiment [1] is WM115.
The subject of experiment [2] is WM1716.
Experiment [3] has as its system WM1745.
Experiment [4] deals with WM3526.
In experiment [5] the test system is WM3619.
In experiment [6] the test system is WM451Lu.
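Also: cell number obtained by counting DAPI-stained nuclei in high-throughput microscope images with image analysis software, screen run in 1,536-well plates.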

Turning to `Cc1ccc(Nc2nccc(N(C)c3ccc4c(C)n(C)nc4c3)n2)cc1S(N)(=O)=O` [Pazopanib] + CC(=O)c1c(C)c2cnc(Nc3ccc(N4CCNCC4)cn3)nc2n(C2CCCC2)c1=O [palbociclib] (first compound 0.4 µM, partner dose 0.04 µM), the cell count in experiment [1] turned out to be 86%; in experiment [2], 70.5%; in experiment [3], 84.3%; in experiment [4] it was 77.6%; in experiment [5], 78.3%; in experiment [6], 86.4%.

As for `Cc1ccc(Nc2nccc(N(C)c3ccc4c(C)n(C)nc4c3)n2)cc1S(N)(=O)=O` [Pazopanib] + c1cc(-c2cnn3cc(-c4ccc(OCCN5CCCCC5)cc4)cnc23)ccn1 [Dorsomorphin] (first compound 0.4 µM, partner dose 0.4 µM), the cell count in experiment [1] was determined as 103%; in experiment [2], 98.5%; in experiment [3], 85.7%; in experiment [4], 70.3%; in experiment [5], 78.6%; in experiment [6], 94.6%.

In the case of `CC1(C)CCC(c2ccc(Cl)cc2)=C(CN2CCN(c3ccc(C(=O)NS(=O)(=O)c4ccc(N[C@H](CCN5CCOCC5)CSc5ccccc5)c(S(=O)(=O)C(F)(F)F)c4)cc3)CC2)C1` + CCN(CC)CCCCNc1ncc2cc(-c3cc(OC)cc(OC)c3)c(NC(=O)NC(C)(C)C)nc2n1 [PD173074] (first compound 0.4 µM, partner dose 0.1 µM), the cell count was determined as 85.7% in experiment [1]; 75.8% in experiment [2]; 10.7% in experiment [3]; 86.6% in experiment [4]; 76.2% in experiment [5]; 73.3% in experiment [6].

Take `CC1(C)CCC(c2ccc(Cl)cc2)=C(CN2CCN(c3ccc(C(=O)NS(=O)(=O)c4ccc(N[C@H](CCN5CCOCC5)CSc5ccccc5)c(S(=O)(=O)C(F)(F)F)c4)cc3)CC2)C1` + CS(=O)(=O)CCNCc1ccc(-c2ccc3ncnc(Nc4ccc(OCc5cccc(F)c5)c(Cl)c4)c3c2)o1 [lapatinib] (first compound 0.4 µM, partner dose 0.8 µM): the cell count in experiment [1] came out at 77.6%; in experiment [2], 71.5%; in experiment [3], 11.5%; in experiment [4] it was 83.5%; in experiment [5], 86.1%; in experiment [6], 87.2%.

For the compound `O=C(/C=C/c1cccnc1)NCCCCC1CCN(C(=O)c2ccccc2)CC1` + Nc1cccc2c1CN(C1CCC(=O)NC1=O)C2=O [lenalidomide] (first compound 0.01 µM, partner dose 1 µM), the cell count worked out at 88.7% in experiment [1]; 96% in experiment [2]; 88.8% in experiment [3]; 96% in experiment [4]; 92% in experiment [5]; 92.6% in experiment [6].

Turning to `CC1(C)CCC(c2ccc(Cl)cc2)=C(CN2CCN(c3ccc(C(=O)NS(=O)(=O)c4ccc(N[C@H](CCN5CCOCC5)CSc5ccccc5)c(S(=O)(=O)C(F)(F)F)c4)cc3)CC2)C1` + COc1cc2c(Oc3ccc4[nH]c(C)cc4c3F)ncnc2cc1OCCCN1CCCC1 [cediranib] (first compound 0.4 µM, partner dose 0.4 µM), the cell count was 89.6% in experiment [1]; 70.6% in experiment [2]; 8.9% in experiment [3]; 96% in experiment [4]; 94.6% in experiment [5]; 81.8% in experiment [6].

With `O=C(/C=C/c1cccnc1)NCCCCC1CCN(C(=O)c2ccccc2)CC1` + Clc1ccc(Nc2nnc(Cc3ccncc3)c3ccccc23)cc1 [vatalanib] (first compound 0.01 µM, partner dose 2 µM), the cell count in experiment [1] amounted to 96.8%; in experiment [2], 98%; in experiment [3], 98.1%; in experiment [4] it was 106%; in experiment [5], 79.7%; in experiment [6], 107%.

On to `CC1(C)CCC(c2ccc(Cl)cc2)=C(CN2CCN(c3ccc(C(=O)NS(=O)(=O)c4ccc(N[C@H](CCN5CCOCC5)CSc5ccccc5)c(S(=O)(=O)C(F)(F)F)c4)cc3)CC2)C1` + COc1cc(Nc2ncc(F)c(Nc3ccc4c(n3)NC(=O)C(C)(C)O4)n2)cc(OC)c1OC [Tamatinib] (first compound 0.4 µM, partner dose 0.4 µM), for which the cell count worked out at 49% in experiment [1]; 84.4% in experiment [2]; 11.1% in experiment [3]; 90.6% in experiment [4]; 61.5% in experiment [5]; 114% in experiment [6].

On to `O=C(/C=C/c1cccnc1)NCCCCC1CCN(C(=O)c2ccccc2)CC1` + Nc1ccn([C@@H]2O[C@H](CO)[C@@H](O)C2(F)F)c(=O)n1 [gemcitabine] (first compound 0.01 µM, partner dose 0.0004 µM), for which the cell count in experiment [1] is 96.9%; in experiment [2], 97.4%; in experiment [3], 87.7%; in experiment [4] it was 106%; in experiment [5], 73.7%; in experiment [6], 101%.

`Cc1ccc(Nc2nccc(N(C)c3ccc4c(C)n(C)nc4c3)n2)cc1S(N)(=O)=O` [Pazopanib] + CCCCCCCCCCCC1=C(O)C(=O)C=C(O)C1=O [Embelin] (first compound 0.4 µM, partner dose 1.2 µM): the cell count in experiment [1] is 94%; in experiment [2] it was 96.6%; in experiment [3], 101%; in experiment [4], 84.8%; in experiment [5], 91.4%; in experiment [6] it was 101%.

Consider `CC1(C)CCC(c2ccc(Cl)cc2)=C(CN2CCN(c3ccc(C(=O)NS(=O)(=O)c4ccc(N[C@H](CCN5CCOCC5)CSc5ccccc5)c(S(=O)(=O)C(F)(F)F)c4)cc3)CC2)C1` + Nc1nc(F)nc2c1ncn2[C@@H]1O[C@H](CO)[C@@H](O)[C@@H]1O [fludarabine] (first compound 0.4 µM, partner dose 0.2 µM), for which the cell count in experiment [1] is 36.3%; in experiment [2] it was 71.1%; in experiment [3], 14.4%; in experiment [4], 21.5%; in experiment [5], 57.8%; in experiment [6] it was 31.6%.

Regarding `CC1(C)CCC(c2ccc(Cl)cc2)=C(CN2CCN(c3ccc(C(=O)NS(=O)(=O)c4ccc(N[C@H](CCN5CCOCC5)CSc5ccccc5)c(S(=O)(=O)C(F)(F)F)c4)cc3)CC2)C1` + C=C(c1ccc(C(=O)O)cc1)c1cc2c(cc1C)C(C)(C)CCC2(C)C [Bexarotene] (first compound 0.4 µM, partner dose 2 µM), the cell count in experiment [1] was 86.1%; in experiment [2], 62.6%; in experiment [3], 20.3%; in experiment [4], 89.5%; in experiment [5], 60.6%; in experiment [6], 74.2%.

`Cc1ccc(Nc2nccc(N(C)c3ccc4c(C)n(C)nc4c3)n2)cc1S(N)(=O)=O` [Pazopanib] + N#Cc1c(O)c2c(-c3ccc(-c4ccccc4O)cc3)csc2[nH]c1=O [A769662] (first compound 0.4 µM, partner dose 2 µM): the cell count in experiment [1] was 96.6%; in experiment [2], 89.2%; in experiment [3] it was 107%; in experiment [4] it was 88.9%; in experiment [5], 106%; in experiment [6], 99%.

Take `CC1(C)CCC(c2ccc(Cl)cc2)=C(CN2CCN(c3ccc(C(=O)NS(=O)(=O)c4ccc(N[C@H](CCN5CCOCC5)CSc5ccccc5)c(S(=O)(=O)C(F)(F)F)c4)cc3)CC2)C1` + O=C(O)[C@@H]1[O][Sb](=[O])([O][Sb]2(=[O])[O][C@H]([C@H](O)CO)[C@H](O)[C@H](C(=O)O)[O]2)[O][C@H]([C@H](O)CO)[C@@H]1O [stibogluconate] (first compound 0.4 µM, partner dose 2 µM): the cell count in experiment [1] was 86.4%; in experiment [2], 56.5%; in experiment [3], 10.1%; in experiment [4], 85.1%; in experiment [5], 70.7%; in experiment [6] it was 83.7%.

On to `O=C(/C=C/c1cccnc1)NCCCCC1CCN(C(=O)c2ccccc2)CC1` + C=C(c1ccc(C(=O)O)cc1)c1cc2c(cc1C)C(C)(C)CCC2(C)C [Bexarotene] (first compound 0.01 µM, partner dose 2 µM), for which the cell count in experiment [1] was found to be 96.6%; in experiment [2], 83.6%; in experiment [3] it was 104%; in experiment [4], 89.5%; in experiment [5] it was 60.7%; in experiment [6], 88.9%.

For `Cc1ccc(Nc2nccc(N(C)c3ccc4c(C)n(C)nc4c3)n2)cc1S(N)(=O)=O` [Pazopanib] + CC(=O)O[C@@]12CO[C@@H]1C[C@H](O)[C@@]1(C)C(=O)[C@H](O)C3=C(C)[C@@H](OC(=O)[C@H](O)[C@@H](NC(=O)OC(C)(C)C)c4ccccc4)C[C@@](O)([C@@H](OC(=O)c4ccccc4)[C@H]21)C3(C)C [Docetaxel] (first compound 0.4 µM, partner dose 0.0001 µM), the cell count in experiment [1] was 73.7%; in experiment [2], 36.1%; in experiment [3] it was 66.8%; in experiment [4], 46.3%; in experiment [5] it was 83%; in experiment [6] it was 69.4%.

Consider `Cc1ccc(Nc2nccc(N(C)c3ccc4c(C)n(C)nc4c3)n2)cc1S(N)(=O)=O` [Pazopanib] + NC(=O)Nc1cc(-c2cccc(F)c2)sc1C(=O)N[C@H]1CCCNC1 [AZD7762] (first compound 0.4 µM, partner dose 0.02 µM), for which the cell count was determined as 103% in experiment [1]; 93.6% in experiment [2]; 69.1% in experiment [3]; 84.2% in experiment [4]; 53.3% in experiment [5]; 116% in experiment [6].

As for `O=C(/C=C/c1cccnc1)NCCCCC1CCN(C(=O)c2ccccc2)CC1` + CN(NC(=O)CC(=O)NN(C)C(=S)c1ccccc1)C(=S)c1ccccc1 [STA4783] (first compound 0.01 µM, partner dose 0.006 µM), the cell count in experiment [1] was found to be 77.3%; in experiment [2], 58.3%; in experiment [3], 28.1%; in experiment [4], 101%; in experiment [5], 41.6%; in experiment [6], 131%.

With `CC1(C)CCC(c2ccc(Cl)cc2)=C(CN2CCN(c3ccc(C(=O)NS(=O)(=O)c4ccc(N[C@H](CCN5CCOCC5)CSc5ccccc5)c(S(=O)(=O)C(F)(F)F)c4)cc3)CC2)C1` + O=c1cc(-c2cccc3c2Sc2ccccc2S3)oc(N2CCOCC2)c1 [KU55933] (first compound 0.4 µM, partner dose 1 µM), the cell count in experiment [1] amounted to 90.6%; in experiment [2] it was 81.1%; in experiment [3] it was 19.2%; in experiment [4] it was 88.6%; in experiment [5] it was 78.5%; in experiment [6] it was 98.1%.

`CC1(C)CCC(c2ccc(Cl)cc2)=C(CN2CCN(c3ccc(C(=O)NS(=O)(=O)c4ccc(N[C@H](CCN5CCOCC5)CSc5ccccc5)c(S(=O)(=O)C(F)(F)F)c4)cc3)CC2)C1` + Cc1cc(Nc2cc(N3CCN(C)CC3)nc(/C=C/c3ccccc3)n2)n[nH]1 [ENMD2076] (first compound 0.4 µM, partner dose 0.04 µM): the cell count was found to be 81.8% in experiment [1]; 70.4% in experiment [2]; 3.81% in experiment [3]; 90.1% in experiment [4]; 65.1% in experiment [5]; 77.5% in experiment [6].

As to `Cc1ccc(Nc2nccc(N(C)c3ccc4c(C)n(C)nc4c3)n2)cc1S(N)(=O)=O` [Pazopanib] + CN(C)S(=O)(=O)c1ccc2c(c1)/C(=C/c1cc3c([nH]1)CCCC3)C(=O)N2 [SU6656] (first compound 0.4 µM, partner dose 0.4 µM), the cell count in experiment [1] was 66.9%; in experiment [2], 92.5%; in experiment [3], 88.6%; in experiment [4], 88.6%; in experiment [5], 97.3%; in experiment [6] it was 123%.

`O=C(/C=C/c1cccnc1)NCCCCC1CCN(C(=O)c2ccccc2)CC1` + Cc1cc(Nc2cc(N3CCN(C)CC3)nc(/C=C/c3ccccc3)n2)n[nH]1 [ENMD2076] (first compound 0.01 µM, partner dose 0.04 µM): the cell count in experiment [1] stood at 97%; in experiment [2], 97.9%; in experiment [3], 93.5%; in experiment [4], 107%; in experiment [5], 103%; in experiment [6], 106%.

For the compound `CC1(C)CCC(c2ccc(Cl)cc2)=C(CN2CCN(c3ccc(C(=O)NS(=O)(=O)c4ccc(N[C@H](CCN5CCOCC5)CSc5ccccc5)c(S(=O)(=O)C(F)(F)F)c4)cc3)CC2)C1` + C[C@]1(c2nc3c(C(N)=O)cccc3[nH]2)CCCN1 [Veliparib] (first compound 0.4 µM, partner dose 1.4 µM), the cell count was 74.8% in experiment [1]; 78.1% in experiment [2]; 7.19% in experiment [3]; 100% in experiment [4]; 64.5% in experiment [5]; 79.5% in experiment [6].
